Values marked as one replicate rest on one cluster of the flow cell; about a third of the high ones do not repeat.
Tested on: ATP
Assay: switch fluorescence ratio, 500 uM ATP over buffer (Cy3 cluster intensity, sum of 5 cycles each) (fold (ratio)); higher = stronger signal-on switching upon ATP binding; sequences stand for … in TCGTCGGCAGCGTCAGATGTGTATAAGAGACAGTTTTTTTTTTTTTTTTTTTTTTTTT…TC
Details: aptamer strand: ATP DNA aptamer (quencher-CACCTGGGGGAGTATTGCGGAGGAAGG + anchor), 100 nM annealed; ATP concentration: 500 uM; one replicate
In short: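 After annealing to 100 nM quencher-labelled ATP aptamer, Cy3-labelled switching-strand clusters on a modified Illumina MiSeq flow-cell were imaged in selection buffer. A second image followed after 15 min with 500 uM ATP at 22 °C, and five such buffer/ATP cycles were done, each separated by NaOH stripping and re-annealing. The fluorescence ratio, averaged per switch-domain sequence, is summed target-cycle over summed buffer-cycle Cy3 intensity per cluster, with clusters outside 100-1000 RFU excluded.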
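Also: ATP exposure 15 min at 22 °C before imaging.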

| Sequence | switch fluorescence ratio |
| --- | --- |
| CATATCGATT | 1.02 |
| CATATCGGGT | 1.02 |
| CATATGTACC | 1.08 |
| CATATTAAAT | 1.03 |
| CATATTGCAC | 1.03 |
| CATATTGTTC | 1.03 |
| CATCAAGAGC | 1.09 |
| CATCAAGCAC | 2.17 |
| CATCACAGT | 1.03 |
| CATCACCCAG | 1.49 |
| CATCAGCTTT | 2.76 |
| CATCAGGTGT | 4.55 |
| CATCAGTGTT | 0.985 |
| CATCATAAAG | 1.02 |
| CATCATAATT | 1.01 |
| CATCATCTCG | 0.972 |
| CATCATTGAG | 1.01 |
| CATCATTTT | 0.978 |
| CATCCGTAAA | 2.52 |
| CATCCGTACT | 2.82 |
| CATCCGTTG | 2.43 |
| CATCCTAAGC | 1.03 |
| CATCCTAGGA | 1.02 |
| CATCCTGCA | 2.52 |
| CATCGAGGTG | 1.06 |

| Sequence | switch fluorescence ratio |
| --- | --- |
| CATCGAGTTG | 1 |
| CATCGATTGG | 0.977 |
| CATCGCCCCG | 1 |
| CATCGGACCT | 1.42 |
| CATCGGCCG | 0.962 |
| CATCGGTATC | 1.13 |
| CATCGTAT | 1.03 |
| CATCGTTGGA | 1.01 |
| CATCTATACT | 1.07 |
| CATCTCAGGG | 1.02 |
| CATCTCATAA | 1.01 |
| CATCTGTCCA | 1.06 |
| CATCTTCCCA | 1.05 |
| CATCTTCTCT | 0.989 |
| CATCTTTTCA | 0.969 |
| CATGAAAAGC | 1.1 |
| CATGAAGGAT | 1 |
| CATGACAGCC | 1.05 |
| CATGATGTGC | 0.936 |
| CATGATTCGG | 0.943 |
| CATGATTGTT | 1.01 |
| CATGCAAGCC | 2.88 |
| CATGCACTA | 1.13 |
| CATGCCACTG | 0.963 |
| CATGCGAGAG | 1.05 |

| Sequence | switch fluorescence ratio |
| --- | --- |
| CATGCTGATA | 0.993 |
| CATGGACATT | 0.968 |
| CATGGATCGC | 1.01 |
| CATGGCTTCT | 0.976 |
| CATGGGAAAG | 1.05 |
| CATGGGCTTT | 0.999 |
| CATGGTAGCG | 0.973 |
| CATGGTGCAA | 1.16 |
| CATGTCAACA | 0.963 |
| CATGTCGCGG | 1.05 |
| CATGTGATA | 1.01 |
| CATGTGGCAT | 1.02 |
| CATGTGGTTT | 0.943 |
| CATGTTATTA | 1.01 |
| CATGTTGCAT | 1.02 |
| CATGTTGTGA | 0.965 |
| CATGTTTCAA | 1 |
| CATGTTTCCG | 1.01 |
| CATTAAGTG | 0.979 |
| CATTAATTAA | 0.98 |
| CATTACCTTT | 0.978 |
| CATTAGCACG | 0.986 |
| CATTAGGACG | 0.981 |
| CATTAGTGAG | 0.938 |
| CATTATATTT | 1.05 |

| Sequence | switch fluorescence ratio |
| --- | --- |
| CATTCAATCG | 1.08 |
| CATTCACTTC | 1.1 |
| CATTCAGAGC | 0.979 |
| CATTCAGATA | 1.02 |
| CATTCAGTT | 1 |
| CATTCCTGTA | 0.994 |
| CATTCGACTA | 1.09 |
| CATTCTGTAT | 1.02 |
| CATTGAGAAC | 0.963 |
| CATTGCAGCT | 0.992 |
| CATTGGTTAC | 1 |
| CATTGTGCA | 0.983 |
| CATTTATCTA | 0.955 |
| CATTTATGGA | 0.98 |
| CATTTCATCG | 1.01 |
| CATTTCGTTC | 0.945 |
| CATTTGCTG | 0.981 |
| CATTTGGAGG | 1.01 |
| CATTTGGTTC | 0.951 |
| CATTTGTTC | 1.05 |
| CATTTTCTCG | 0.994 |
| CCAAAAGTAA | 1.64 |
| CCAAAATAGG | 1.04 |
| CCAAACATAG | 1.08 |
| CCAAACGGCC | 1.01 |
